Among all 150,000 compounds or so, about 540 (0.36%) showed an effect of 50% or more. This is one part of the list.
Test system: Plasmodium falciparum
Assay: Primary screen in NF54 nanoGlo assay, in single point, at 2uM, 72h; a lower Z score goes with more inhibition
Assay type: functional, Erythrocyte
Conditions: timepoint 72 hour

`COCCCNC(=O)c1snnc1C(C)(C)C` and `CCc1nnsc1C(=O)N[C@@H](C)c1cc(C)sc1C` are the same in “% Inhibition” value: -2% for the first, -2% for the second.

First: OCCC1CCCC1NCc1ccc(Br)o1 (stereo not given)
Second: NC(=O)C1CCCN(Cc2ccc(NCC3CCC=CO3)cc2)C1 (stereo not given)
The “% Inhibition” value of the first is lower: -8% for the first, 3% for the second.

First: Cn1c(C(=O)NC2CCCCC2)cc2c1CCN(Cc1ccccc1)C2
Second: O=C(Nc1cc(C(=O)N2CCN(CCO)CC2)c2c(c1)ncn2C1CCCC1)c1ccccc1
The “% Inhibition” value of the first is higher: -1% for the first, -4% for the second.

Compared with `COc1ccc(N2CC(C(=O)N3C4C=CCC3CC4)CC2=O)cc1` (stereo not given), `Cc1ccc(N2C[C@@H](C(=O)Nc3ccc4c(c3)CCC4)CC2=O)cc1` is higher in “% Inhibition” value: -5% for the first, 1% for the second.

Going from `CCOC(=O)C1(CNC(=O)N2CCO[C@H](C(F)F)C2)CCCC1` to `COCC(=O)N1CC[C@@H]2N(C(=O)c3n[nH]c4c3CCC4)CCC[C@@]2(CO)C1`, the “% Inhibition” value falls from 3% to -7%.

Going from `Cc1c(C)[n+]([O-])c([C@@H](c2ccc3ncccc3c2)C2C(=O)OC(C)(C)OC2=O)n1Cc1ccccc1` to `COc1c(C)cc(-c2ccc3nc(-c4ccccc4O)oc3c2)cc1C`, the “% Inhibition” value falls from 1% to -6%.

First: Cn1nccc1NC(=O)NC1CN(c2ccc(C(F)(F)F)cc2)C1
Second: CC1CC1C(=O)NCCC(=O)N1CCCC1c1nc(-c2cccc(C(F)(F)F)c2)c[nH]1 (stereo not given)
The “% Inhibition” value of the first is lower: -7% for the first, 1% for the second.

Compared with `C=CCN(CC=C)S(=O)(=O)c1c(F)cccc1F`, `CC(=O)c1c(C)cccc1NS(=O)(=O)CCCC(F)(F)F` is lower in “% Inhibition” value: -15% for the first, -18% for the second.

Compared with `O=C1NCCCC[C@@H]1N1CCc2ccccc2C1`, `CC1(C)CS(=O)(=O)N(c2cccc(C(=O)N3CCc4ccccc4C3)c2)C1=O` is higher in “% Inhibition” value: -10% for the first, -2% for the second.

Going from `CS(=O)(=O)NCc1ccc(-c2ccco2)nc1` to `C[C@H](NC(=O)CN1CCCC1=O)c1ncc(-c2ccccc2)o1`, the “% Inhibition” value falls from -6% to -13%.

First: Cc1csc(CN(C)C(=O)c2cc[nH]c2C)n1
Second: Cc1cnc(CNC(=O)NC[C@H](C)N(C)Cc2ccccc2)s1
The “% Inhibition” value of the first is lower: -9% for the first, 6% for the second.

`CCOc1ccc(N2CCC[C@H](NC(=O)C(C)C)C2)nn1` and `CCOC(=O)c1cnccc1N1CCC[C@H](N(C)C)C1` are the same in “% Inhibition” value: -13% for the first, -13% for the second.

First: Cc1ccc(Cc2ccccc2C(=O)N[C@H]2CS(=O)(=O)C[C@@H]2O)cc1F
Second: O=C(Nc1ccccc1)OC1CCCC(NC(=O)C2CC(=O)N(c3ccc(F)cc3)C2)C1 (stereo not given)
The “% Inhibition” value of the first is lower: -7% for the first, -3% for the second.

Going from `CCOC(=O)[C@@H](NCc1nc2c(F)cccc2n1CC)C1CC1` to `CC(C1CC1)N(C)C(=O)C1COc2ccccc2C1` (stereo not given), the “% Inhibition” value rises from -7% to -3%.

Going from `Cc1occc1C(=O)NCC(F)(F)C(F)F` to `CC1CCN(C(=O)CNC(=O)c2ccco2)CC1`, the “% Inhibition” value rises from -4% to 1%.

Compared with `CCn1c(CN[C@H](c2ccccc2)c2cccs2)nc2cc(S(=O)(=O)N3CCCCC3)ccc21`, `CCN(C)c1nc(N2CCN(c3ccccc3)CC2)nc2c1CN(C(=O)c1ccccc1Cl)CC2` is lower in “% Inhibition” value: 14% for the first, 1% for the second.

Compared with `CN([C@@]1(C#N)CCOC1)S(=O)(=O)c1ccccc1Br`, `O=C(NCC1CCN([C@H]2CCOC2)CC1)c1cccc(Br)c1` is higher in “% Inhibition” value: -13% for the first, -5% for the second.

First: Cc1ccc(-c2csc(N3CCC(n4cncn4)CC3)n2)cc1
Second: Cc1ccc(-n2nnnc2N2CCOC3(CCCC3)C2)cc1
The “% Inhibition” value of the first is lower: -19% for the first, -3% for the second.

First: Cc1cc(Cl)cc(C)c1NC(=O)N(CCO)Cc1nccn1C
Second: COC(=O)CCN1C[C@H](OCc2cccc(OC)c2)CN(C(=O)c2ccc(C)c(C)c2)CC1=O
The “% Inhibition” value of the first is lower: -13% for the first, -8% for the second.

Compared with `c1ccc(-c2ncc(CN3CC(c4cccnc4)C3)s2)cc1`, `Fc1ccc(CN2CCC(OCc3cccnc3)CC2)c(F)c1Cl` is higher in “% Inhibition” value: -14% for the first, 0% for the second.

First: CC(C)[C@H](NC(=O)NCCc1ncnn1C)c1ccccc1Cl
Second: CC[C@@H](C#N)NC(=O)c1ncccc1O
The “% Inhibition” value of the first is higher: 35% for the first, -20% for the second.

First: Cc1nc(C)c(F)c(NCCCc2cnoc2)n1
Second: Cc1ccc(-n2ncc3c(N)c4c(nc32)CCCC4=O)cc1
The “% Inhibition” value of the first is lower: 2% for the first, 12% for the second.

First: O=C(c1cc2n(n1)CCCO2)N1CCN(Cc2ccncc2)CC1
Second: C/C(=C\c1ccccc1)CN1CCCn2nc(CN3CCC(F)CC3)cc2C1
The “% Inhibition” value of the first is lower: -13% for the first, 1% for the second.

First: COc1c(Cl)cc(Cl)cc1CNC(C)C
Second: COc1ccc(-n2nc3nc(N4CCN(C(C)C)CC4)nc(-c4ccccc4)c3c2N)cc1
The “% Inhibition” value of the first is higher: 35% for the first, -7% for the second.

`CC[C@]1(O)CCCN(C(=O)c2n[nH]nc2C)C1` and `CC(C)(C)CC(=O)N1CCC(S(C)(=O)=O)CC1` are the same in “% Inhibition” value: -2% for the first, -2% for the second.

First: COc1ccc(OC)c([C@@H]2CCCN2Cc2ccn(-c3ccccc3)n2)c1
Second: O=S1(=O)NC[C@H](O)CN(Cc2cccs2)C[C@@]2(COc3cc(-c4ccccc4F)ccc31)C[C@@H](O)[C@@H](O)C2
The “% Inhibition” value of the first is higher: 3% for the first, -18% for the second.

Going from `CC(NC1CCOC(C2CC2)C1)[C@H]1CCCN1C(=O)OC(C)(C)C` (stereo not given in full) to `NC1CCCCCC1C(=O)N(CC1CC1)CC1CC1` (stereo not given), the “% Inhibition” value rises from -16% to -13%.

In the case of `O=C(c1cc(F)cc(Cl)c1)N1CCN(CCO)[C@@H]2CS(=O)(=O)C[C@@H]21`, the “% Inhibition” value is reported as -6%.

Going from `COCCCNC(=O)c1snnc1C(C)(C)C` to `CCc1nnsc1C(=O)N[C@@H](C)c1cc(C)sc1C`, the Z score rises from 0.21 to 0.45.

Going from `OCCC1CCCC1NCc1ccc(Br)o1` (stereo not given) to `NC(=O)C1CCCN(Cc2ccc(NCC3CCC=CO3)cc2)C1` (stereo not given), the Z score falls from 0.87 to -0.56.

First: Cn1c(C(=O)NC2CCCCC2)cc2c1CCN(Cc1ccccc1)C2
Second: O=C(Nc1cc(C(=O)N2CCN(CCO)CC2)c2c(c1)ncn2C1CCCC1)c1ccccc1
The Z score of the first is lower: 0.09 for the first, 0.42 for the second.

First: COc1ccc(N2CC(C(=O)N3C4C=CCC3CC4)CC2=O)cc1 (stereo not given)
Second: Cc1ccc(N2C[C@@H](C(=O)Nc3ccc4c(c3)CCC4)CC2=O)cc1
The Z score of the first is higher: 0.62 for the first, -0.13 for the second.

Going from `CCOC(=O)C1(CNC(=O)N2CCO[C@H](C(F)F)C2)CCCC1` to `COCC(=O)N1CC[C@@H]2N(C(=O)c3n[nH]c4c3CCC4)CCC[C@@]2(CO)C1`, the Z score rises from -0.35 to 1.12.

First: Cc1c(C)[n+]([O-])c([C@@H](c2ccc3ncccc3c2)C2C(=O)OC(C)(C)OC2=O)n1Cc1ccccc1
Second: COc1c(C)cc(-c2ccc3nc(-c4ccccc4O)oc3c2)cc1C
The Z score of the first is lower: -0.18 for the first, 0.83 for the second.

First: Cn1nccc1NC(=O)NC1CN(c2ccc(C(F)(F)F)cc2)C1
Second: CC1CC1C(=O)NCCC(=O)N1CCCC1c1nc(-c2cccc(C(F)(F)F)c2)c[nH]1 (stereo not given)
The Z score of the first is higher: 1.27 for the first, -0.12 for the second.

First: C=CCN(CC=C)S(=O)(=O)c1c(F)cccc1F
Second: CC(=O)c1c(C)cccc1NS(=O)(=O)CCCC(F)(F)F
The Z score of the first is lower: 1.78 for the first, 2.08 for the second.

Compared with `O=C1NCCCC[C@@H]1N1CCc2ccccc2C1`, `CC1(C)CS(=O)(=O)N(c2cccc(C(=O)N3CCc4ccccc4C3)c2)C1=O` is lower in Z score: 1.27 for the first, 0.28 for the second.

First: CS(=O)(=O)NCc1ccc(-c2ccco2)nc1
Second: C[C@H](NC(=O)CN1CCCC1=O)c1ncc(-c2ccccc2)o1
The Z score of the first is lower: 0.63 for the first, 1.66 for the second.

Going from `Cc1csc(CN(C)C(=O)c2cc[nH]c2C)n1` to `Cc1cnc(CNC(=O)NC[C@H](C)N(C)Cc2ccccc2)s1`, the Z score falls from 1.81 to -0.59.

Compared with `CCOc1ccc(N2CCC[C@H](NC(=O)C(C)C)C2)nn1`, `CCOC(=O)c1cnccc1N1CCC[C@H](N(C)C)C1` is higher in Z score: 1.37 for the first, 1.39 for the second.

Going from `Cc1ccc(Cc2ccccc2C(=O)N[C@H]2CS(=O)(=O)C[C@@H]2O)cc1F` to `O=C(Nc1ccccc1)OC1CCCC(NC(=O)C2CC(=O)N(c3ccc(F)cc3)C2)C1` (stereo not given), the Z score falls from 0.73 to 0.38.

Going from `CCOC(=O)[C@@H](NCc1nc2c(F)cccc2n1CC)C1CC1` to `CC(C1CC1)N(C)C(=O)C1COc2ccccc2C1` (stereo not given), the Z score falls from 1.06 to 0.26.

Compared with `Cc1occc1C(=O)NCC(F)(F)C(F)F`, `CC1CCN(C(=O)CNC(=O)c2ccco2)CC1` is lower in Z score: 0.7 for the first, -0.17 for the second.

First: CCn1c(CN[C@H](c2ccccc2)c2cccs2)nc2cc(S(=O)(=O)N3CCCCC3)ccc21
Second: CCN(C)c1nc(N2CCN(c3ccccc3)CC2)nc2c1CN(C(=O)c1ccccc1Cl)CC2
The Z score of the first is lower: -1.61 for the first, -0.24 for the second.

Going from `CN([C@@]1(C#N)CCOC1)S(=O)(=O)c1ccccc1Br` to `O=C(NCC1CCN([C@H]2CCOC2)CC1)c1cccc(Br)c1`, the Z score falls from 2.34 to 1.08.

First: Cc1ccc(-c2csc(N3CCC(n4cncn4)CC3)n2)cc1
Second: Cc1ccc(-n2nnnc2N2CCOC3(CCCC3)C2)cc1
The Z score of the first is higher: 2.92 for the first, 0.39 for the second.

Compared with `Cc1cc(Cl)cc(C)c1NC(=O)N(CCO)Cc1nccn1C`, `COC(=O)CCN1C[C@H](OCc2cccc(OC)c2)CN(C(=O)c2ccc(C)c(C)c2)CC1=O` is lower in Z score: 1.81 for the first, 1.04 for the second.

First: c1ccc(-c2ncc(CN3CC(c4cccnc4)C3)s2)cc1
Second: Fc1ccc(CN2CCC(OCc3cccnc3)CC2)c(F)c1Cl
The Z score of the first is higher: 1.29 for the first, 0 for the second.

Compared with `CC(C)[C@H](NC(=O)NCCc1ncnn1C)c1ccccc1Cl`, `CC[C@@H](C#N)NC(=O)c1ncccc1O` is higher in Z score: -4.75 for the first, 3.88 for the second.

First: Cc1nc(C)c(F)c(NCCCc2cnoc2)n1
Second: Cc1ccc(-n2ncc3c(N)c4c(nc32)CCCC4=O)cc1
The Z score of the first is higher: -0.29 for the first, -2.26 for the second.

Going from `O=C(c1cc2n(n1)CCCO2)N1CCN(Cc2ccncc2)CC1` to `C/C(=C\c1ccccc1)CN1CCCn2nc(CN3CCC(F)CC3)cc2C1`, the Z score falls from 2.08 to -0.09.

Going from `COc1c(Cl)cc(Cl)cc1CNC(C)C` to `COc1ccc(-n2nc3nc(N4CCN(C(C)C)CC4)nc(-c4ccccc4)c3c2N)cc1`, the Z score rises from -1.04 to 1.11.

Compared with `CC[C@]1(O)CCCN(C(=O)c2n[nH]nc2C)C1`, `CC(C)(C)CC(=O)N1CCC(S(C)(=O)=O)CC1` is higher in Z score: 0.37 for the first, 0.42 for the second.

First: COc1ccc(OC)c([C@@H]2CCCN2Cc2ccn(-c3ccccc3)n2)c1
Second: O=S1(=O)NC[C@H](O)CN(Cc2cccs2)C[C@@]2(COc3cc(-c4ccccc4F)ccc31)C[C@@H](O)[C@@H](O)C2
The Z score of the first is lower: -0.34 for the first, 2.26 for the second.

First: CC(NC1CCOC(C2CC2)C1)[C@H]1CCCN1C(=O)OC(C)(C)C (stereo not given in full)
Second: NC1CCCCCC1C(=O)N(CC1CC1)CC1CC1 (stereo not given)
The Z score of the first is higher: 1.78 for the first, 1.29 for the second.

With `O=C(c1cc(F)cc(Cl)c1)N1CCN(CCO)[C@@H]2CS(=O)(=O)C[C@@H]21` the Z score was 0.8.

From ChEMBL document CHEMBL4888484, “Replenishing the malaria drug discovery pipeline: Screening and hit evaluation of the MMV Hit Generation Library 1 (HGL1) against asexual blood stage Plasmodium falciparum ,using a nano luciferase reporter read-out” (2022)
